Source: PubChem BioAssay (NCATS)
The shares of active, inactive and inconclusive entries below differ from those in the screen. For part of these data: Where the call is inconclusive, the potency comes from a doubtful curve fit. Calls of active or inactive are those of the source. Unless noted, the call rests on the fitted dose curve; in most records, active means well fitted curve in the direction sought with a large enough effect; inconclusive means small, poorly fitted or top-dose-only effect, or another doubt; inactive means no such curve, though single readings can be large; an effect the other way counts as inactive or inconclusive.

Columns and labels:
[1] = Validation of Assay for Modulators of Lamin A Splicing (AID 1459; active means well fitted curve in the direction sought with a large enough effect in the signal ratio; inconclusive means small, poorly fitted or top-dose-only effect, or effect the other way, or a change in a side signal; inactive means no such curve, though single readings can be large or run the other way; the % refers to the signal ratio; further: potency means the concentration at half of the fitted maximal effect;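 on ratio change, both ways: cells exposed to compound for two days before reading; 0% is about no effect; ratio rise marks activators and ratio drop marks inhibitors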); details: Lamin A splicing dual RFP/GFP fluorescence reporter; Potency: ratio unless noted; ratio change, both ways: at 9.22 µM unless noted
Procedure, shortened: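 Readout: ratio of GFP (500-530 nm) to RFP (575-640 nm) total object intensity by 488 nm laser-scanning cytometry after 48 hrs. Cells were HeLa S3 clones carrying lamin A-EGFP minigene plus DsRed2 viability reporter; vehicle 0.5% DMSO final.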

[2] = qHTS for differential inhibitors of proliferation of Plasmodium falciparum line D10 (AID 1877);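 further: potency means the concentration at half of the fitted maximal effect; parasites grown with compound for 72 h before DNA staining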
[3] = qHTS for differential inhibitors of proliferation of Plasmodium falciparum line Dd2 (AID 1882); details: Potency: Plasmodium falciparum Dd2 proliferation inhibition; further: potency means the concentration at half of the fitted maximal effect; nearly all actives have a fitted effect of over 65% in size
Procedure, shortened: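 SYBR Green DNA fluorescence (ex 485, em 535 nm) after overnight lysis quantifies parasite growth; compound exposure lasted 72 h at 37 C on infected red cells at 2.5% hematocrit, 0.3% parasitemia (final). Artemisinin 0.29 uM and vehicle wells define normalization.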

[4] = target: Ferritin light chain (Equus caballus) (UniProt P02791); experiment: qHTS Validation Assay for Identification of Novel General Anesthetics (AID 2323); further: potency means the concentration at half of the fitted maximal effect
Procedure, shortened: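 10 uM horse-spleen apoferritin + 1-AMA (50% saturated, PBS); cpd pin-transferred, 10 min RT. Ex 380/Em 535 nm endpoint. Activity normalized between free 1-AMA and 1-AMA/apoferritin; 4-parameter Hill fit of concentration-response.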

[5] = target: RecQ-like DNA helicase BLM (Homo sapiens) (UniProt P54132); experiment: qHTS Validation Assay for Inhibitors of Bloom's syndrome helicase (BLM) (AID 2364); further: potency means the concentration at half of the fitted maximal effect;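 on activity change, negative = inhibition: plate controls were DMSO vehicle for no effect and enzyme-free control for full effect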
Procedure, shortened: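 Forked 20-bp duplex substrate (200 nM, TAMRA/BHQ-2) plus 2 mM ATP added after 15 min compound preincubation with 50 nM enzyme, pH 8.0, poly(dI-dC) 2.5 ug/ml. Strand separation followed by fluorescence (525/598 nm) over 2 h, normalized to enzyme-free and DMSO controls.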

[6] = Quantitative high throughput screen for delayed death inhibitors of the malarial parasite plastid, 96 hour incubation (AID 488745); further: potency means the concentration at half of the fitted maximal effect; nearly all actives have a fitted effect of over 70% in size
Procedure, shortened: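 Readout is firefly luciferase luminescence from an integrated reporter in P. falciparum; lower signal marks inhibited growth. Cultures at 2% hematocrit and 0.1% parasitemia were treated with compound across two generations (96 h, 37 C, 5% CO2).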

[7] = Quantitative high throughput screen for delayed death inhibitors of the malarial parasite plastid, 48 hour incubation (AID 488752); further: potency means the concentration at half of the fitted maximal effect; nearly all actives have a fitted effect of over 65% in size
Procedure, shortened: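 First, compound was pinned into RPMI 1640 medium containing 0.5% Albumax. Next, reporter-parasite-infected erythrocytes were added to 2% hematocrit and 0.1% parasitemia. After 48 h at 37 C under 5% CO2, luciferase detection reagent was added and luminescence read.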

[8] = target: Calcium and integrin-binding protein 1 (Homo sapiens) (UniProt Q99828); experiment: Confirmatory qHTS for Identification of Calcium Integrin Binding Protein 1 (CIB1) Competitor (AID 1508617); further: nearly all actives have a fitted effect of over 65% in size; further: potency means the concentration at half of the fitted maximal effect; on activity change, negative = inhibition: on the % scale 0 is the no-effect control and ±100 the full control effect
Procedure, shortened: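 Compounds at up to 114 uM final met 1 uM GST-tagged CIB1 for 15 min at room temperature (HEPES pH 7.4, 5 mM CaCl2). FITC-labelled alphaIIb peptide, 100 nM, added; polarization read after 15 min more.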

[9] = target: Calcium and integrin-binding protein 1 (Homo sapiens) (UniProt Q99828); experiment: Primary qHTS for Identification of Calcium Integrin Binding Protein 1 (CIB1) Competitor (AID 1508620); further: potency means the concentration at half of the fitted maximal effect
Procedure, shortened: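 CIB1-GST (1 uM final) and compound incubated 15 min at room temperature before adding FITC-alphaIIb peptide tracer (100 nM final). Competition for binding read by fluorescence polarization (ex 480, em 540) after another 15 min at room temperature.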

[10] = qHTS Assay for Lipid Storage Modulators (AID 1519; calls by dose curve; further: on the % scale 0 is the no-effect control and ±100 the full control effect); details: Drosophila S3 cells, BODIPY lipid droplet/cell ratio, laser cytometry, cells loaded with oleic acid; activity change, negative = inhibition: at 57.5 µM (top of the series) unless noted
Procedure, shortened: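 Cells seeded at 5,000 per well were treated with compounds over a concentration series and loaded with oleic acid (400 uM, as added). Lipid droplet fluorescence (488 nm excitation, 500-530 nm channel) was read by laser-scanning cytometry and normalized to 20 uM Triacsin C.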

[11] = target: ATP-dependent 6-phosphofructokinase (Trypanosoma brucei brucei) (UniProt O15648); experiment: qHTS Validation Assay to Find Inhibitors of T. brucei phosphofructokinase (AID 485368); further: potency means the concentration at half of the fitted maximal effect
Procedure, shortened: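 ADP-Glo luminescence, two-step: residual ATP depleted, then ADP converted to ATP for luciferase. Enzyme 1.25 nM, F6P 0.5 mM, ATP 0.1 mM, pH 8.0 TEA buffer, 45 min RT. Curves fitted and classed by quality and efficacy.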

[12] = target: Chromobox protein homolog 1 (Homo sapiens) (UniProt P83916); experiment: qHTS Validation Assay for Inhibitors of HP1-beta Chromodomain Interactions with Methylated Histone Tails (AID 488953); further: potency means the concentration at half of the fitted maximal effect; nearly all actives have a fitted effect of over 50% in size
Procedure, shortened: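 Disruption of preformed HP1-beta:H3K9me3 peptide complexes (both 50 nM, PBS pH 7.4 with 0.01% Tween-20) is measured by AlphaScreen after 30 min compound exposure at room temperature, using streptavidin donor and nickel chelate acceptor beads at 10 ug/mL final.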

[13] = target: Transient receptor potential cation channel subfamily V member 1 (Homo sapiens) (UniProt Q8NER1); experiment: HTS Assay for Compounds that Act as Enhancers of the Vanilloid Receptor 1 (AID 488979); further: potency means the concentration at half of the fitted maximal effect
Procedure, shortened: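 Calcium influx kinetics via Fluo-8 (480/520 nm) in TRPV1-expressing cells, 2000/well cultured overnight at 35.5C. Compound-alone read 3 min (agonist phase), followed by EC20 capsaicin challenge for 2 min (enhancer phase).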

[14] = Nrf2 qHTS screen for inhibitors: Validation (AID 493153; active means well fitted inhibition curve with a large enough effect in the main read-out, with a control signal flat, not every such curve was filed as active; inconclusive means small, poorly fitted or top-dose-only effect, or effect the other way, or a change in a side signal; inactive means no such curve, though single readings can be large or run the other way; further: potency means the concentration at half of the fitted maximal effect)
Procedure, shortened: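 A549 ARE_Fluc, 5% FBS OPTI-MEM; cpd titration, 18-24 h, 37°C/5% CO2. Read 1: CellTiter-Fluor (Ex 405/Em 525), cytotox. Read 2: luciferase lum, Nrf2 activity.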

[15] = Validation screen for small molecules that induce DNA re-replication in SW480 colon adenocarcinoma cells (AID 504364); further: potency means the concentration at half of the fitted maximal effect
Procedure, shortened: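 Image-based qHTS: compounds were incubated with SW480 cells for 48 hr, nuclei stained with Hoechst, and per-nucleus fluorescence intensity scanned to flag cells with excess DNA content.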

[16] = target: Peptidyl-prolyl cis-trans isomerase NIMA-interacting 1 (Homo sapiens) (UniProt Q13526); experiment: qHTS Validation Assay to Find Inhibitors of Pin1 (AID 504536; active means well fitted inhibition curve with a large enough effect in the polarisation, with a control signal flat, not every such curve was filed as active; inconclusive means small, poorly fitted or top-dose-only effect, or effect the other way; the % refers to the polarisation; further: potency means the concentration at half of the fitted maximal effect)
Procedure, shortened: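 Fluorescence polarization competition: compounds (titration) displace HiFluor-488-labeled Pin1-1b peptide from Pin1 (0.3 uM final) in pH 7.5 HEPES buffer with DTT, 10 min at room temperature; %Activity normalized to no-enzyme wells, curves fitted.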

[17] = qHTS for Inhibitors of ATXN expression: Validation (AID 588378); further: potency means the concentration at half of the fitted maximal effect; nearly all actives have a fitted effect of over 75% in size
Procedure, shortened: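 Cells: HEK293-ATXN2-FFLuc, phenol-red free DMEM, 2 h attachment. Compound pin-transfer, 24 h, 37 degrees C, 5% CO2. CellTiter-Fluor 30 min, Ex405/Em525; Bright-Glo 5 min, luminescence 2 s exposure.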

[18] = qHTS Assay for Identifying Gametocytocidal Compounds (AID 743244); further: potency means the concentration at half of the fitted maximal effect; details: P. falciparum 3D7 stage III-V gametocytes, alamarBlue, 72 h; max response: stronger effect = lower value
Procedure, shortened: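 In this qHTS viability screen, late-stage 3D7 gametocytes are incubated with compound for 72 h, then with alamarBlue for 24 h; reduced resorufin fluorescence marks killing.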

[19] = Primary qHTS for inhibitors of La Crosse Virus (LACV) - induced cell death in SH-SY5Y cells (AID 1508616); further: potency means the concentration at half of the fitted maximal effect
Procedure, shortened: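 SH-SY5Y, 6000 cells/well; cpd via pin tool in DMSO; LACV 0.01 MOI; 6 d 37C 5% CO2; ATPLite, 5 min RT; luminescence normalized to ±virus DMSO controls.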
Tags describe the fitted curve by direction and shape or compound fluorescence and quenching.

Chain of UniProt Q99828 (Q99828 whole entry, looked up): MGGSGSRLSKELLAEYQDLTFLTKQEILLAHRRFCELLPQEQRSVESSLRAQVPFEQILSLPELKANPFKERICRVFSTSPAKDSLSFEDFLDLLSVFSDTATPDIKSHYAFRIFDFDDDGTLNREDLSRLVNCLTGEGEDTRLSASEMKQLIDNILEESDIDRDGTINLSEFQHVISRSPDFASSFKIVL
Chain of UniProt P54132 (P54132 whole entry, looked up): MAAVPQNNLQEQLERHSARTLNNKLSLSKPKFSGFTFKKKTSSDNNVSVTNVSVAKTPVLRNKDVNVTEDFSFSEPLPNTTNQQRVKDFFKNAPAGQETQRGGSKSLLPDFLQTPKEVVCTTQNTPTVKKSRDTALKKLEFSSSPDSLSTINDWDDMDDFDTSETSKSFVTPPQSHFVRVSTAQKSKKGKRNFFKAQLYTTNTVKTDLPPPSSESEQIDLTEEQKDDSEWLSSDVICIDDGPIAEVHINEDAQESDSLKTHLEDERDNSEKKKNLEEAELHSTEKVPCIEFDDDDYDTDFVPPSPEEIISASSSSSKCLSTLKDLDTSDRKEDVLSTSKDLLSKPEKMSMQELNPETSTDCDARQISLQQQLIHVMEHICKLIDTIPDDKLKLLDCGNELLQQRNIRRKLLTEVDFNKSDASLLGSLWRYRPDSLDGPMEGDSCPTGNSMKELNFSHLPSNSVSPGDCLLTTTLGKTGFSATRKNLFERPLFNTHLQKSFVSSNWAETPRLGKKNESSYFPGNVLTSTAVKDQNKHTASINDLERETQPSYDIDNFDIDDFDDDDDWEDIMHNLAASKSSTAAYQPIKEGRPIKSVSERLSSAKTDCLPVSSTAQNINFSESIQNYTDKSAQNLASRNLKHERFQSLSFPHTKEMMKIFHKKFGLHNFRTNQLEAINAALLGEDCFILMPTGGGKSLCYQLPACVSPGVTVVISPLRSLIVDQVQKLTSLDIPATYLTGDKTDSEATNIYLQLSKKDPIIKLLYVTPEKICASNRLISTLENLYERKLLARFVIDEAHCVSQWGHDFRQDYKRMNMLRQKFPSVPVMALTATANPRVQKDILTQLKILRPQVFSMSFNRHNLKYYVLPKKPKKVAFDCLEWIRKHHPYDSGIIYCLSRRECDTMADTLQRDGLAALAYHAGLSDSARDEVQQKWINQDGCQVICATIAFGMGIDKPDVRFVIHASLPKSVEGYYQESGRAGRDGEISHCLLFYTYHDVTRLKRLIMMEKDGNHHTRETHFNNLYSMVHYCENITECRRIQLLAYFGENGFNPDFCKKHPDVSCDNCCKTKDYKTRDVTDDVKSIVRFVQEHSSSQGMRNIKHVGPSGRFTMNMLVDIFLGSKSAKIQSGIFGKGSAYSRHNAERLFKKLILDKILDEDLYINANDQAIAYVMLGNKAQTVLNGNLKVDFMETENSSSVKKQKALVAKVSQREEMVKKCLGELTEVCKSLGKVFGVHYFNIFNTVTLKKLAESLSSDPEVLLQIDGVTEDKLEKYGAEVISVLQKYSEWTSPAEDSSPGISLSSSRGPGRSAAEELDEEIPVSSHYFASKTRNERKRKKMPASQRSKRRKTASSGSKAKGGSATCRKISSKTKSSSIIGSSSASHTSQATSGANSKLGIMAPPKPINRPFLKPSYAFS
Chain of UniProt Q13526 (Q13526 whole entry, looked up): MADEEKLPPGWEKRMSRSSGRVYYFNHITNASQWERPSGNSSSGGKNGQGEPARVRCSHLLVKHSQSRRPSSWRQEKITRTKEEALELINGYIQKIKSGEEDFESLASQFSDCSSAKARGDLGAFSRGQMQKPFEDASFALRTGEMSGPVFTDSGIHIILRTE
Chain of UniProt O15648 (O15648 whole entry, looked up): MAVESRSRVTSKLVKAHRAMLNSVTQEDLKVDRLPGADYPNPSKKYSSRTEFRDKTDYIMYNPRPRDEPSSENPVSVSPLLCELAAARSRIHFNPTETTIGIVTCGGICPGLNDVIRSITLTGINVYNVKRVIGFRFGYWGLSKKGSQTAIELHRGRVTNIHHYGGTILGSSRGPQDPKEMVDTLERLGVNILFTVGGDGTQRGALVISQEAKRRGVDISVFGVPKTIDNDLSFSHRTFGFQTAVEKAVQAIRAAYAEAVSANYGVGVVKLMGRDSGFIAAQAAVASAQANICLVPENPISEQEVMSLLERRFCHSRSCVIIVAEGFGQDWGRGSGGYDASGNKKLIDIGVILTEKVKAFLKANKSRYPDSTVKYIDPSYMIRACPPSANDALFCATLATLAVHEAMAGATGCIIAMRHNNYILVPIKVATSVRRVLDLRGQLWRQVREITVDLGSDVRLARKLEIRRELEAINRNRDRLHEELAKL
Chain of UniProt Q8NER1 (Q8NER1 whole entry, looked up): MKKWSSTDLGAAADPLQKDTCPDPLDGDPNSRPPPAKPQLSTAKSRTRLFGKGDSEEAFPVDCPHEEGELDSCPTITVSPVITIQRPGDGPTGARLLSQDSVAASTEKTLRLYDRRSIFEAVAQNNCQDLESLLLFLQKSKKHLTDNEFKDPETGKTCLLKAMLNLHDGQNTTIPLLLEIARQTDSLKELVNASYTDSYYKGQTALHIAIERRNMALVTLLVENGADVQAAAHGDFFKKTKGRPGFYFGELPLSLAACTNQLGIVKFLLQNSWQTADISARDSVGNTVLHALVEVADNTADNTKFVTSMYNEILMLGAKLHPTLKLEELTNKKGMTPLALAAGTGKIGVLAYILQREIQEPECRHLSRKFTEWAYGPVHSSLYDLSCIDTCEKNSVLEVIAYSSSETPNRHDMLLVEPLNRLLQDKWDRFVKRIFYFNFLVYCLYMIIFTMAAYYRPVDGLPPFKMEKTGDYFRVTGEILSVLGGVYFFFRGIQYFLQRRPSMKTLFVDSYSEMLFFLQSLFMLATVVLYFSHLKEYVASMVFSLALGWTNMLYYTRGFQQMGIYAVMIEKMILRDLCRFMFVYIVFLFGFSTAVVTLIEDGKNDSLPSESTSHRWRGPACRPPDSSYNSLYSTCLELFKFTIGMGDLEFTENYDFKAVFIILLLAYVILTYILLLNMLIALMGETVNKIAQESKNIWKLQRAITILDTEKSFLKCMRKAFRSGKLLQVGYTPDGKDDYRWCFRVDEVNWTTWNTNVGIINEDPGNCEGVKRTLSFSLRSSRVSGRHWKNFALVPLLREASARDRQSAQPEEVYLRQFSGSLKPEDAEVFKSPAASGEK
Chain of UniProt P02791 (P02791 whole entry, looked up): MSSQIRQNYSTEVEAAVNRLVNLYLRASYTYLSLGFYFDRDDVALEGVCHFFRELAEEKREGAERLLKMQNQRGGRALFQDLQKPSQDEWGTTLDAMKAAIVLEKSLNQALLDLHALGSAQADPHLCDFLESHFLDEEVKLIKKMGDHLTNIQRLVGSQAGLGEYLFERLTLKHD
Chain of UniProt P83916 (P83916 whole entry, looked up): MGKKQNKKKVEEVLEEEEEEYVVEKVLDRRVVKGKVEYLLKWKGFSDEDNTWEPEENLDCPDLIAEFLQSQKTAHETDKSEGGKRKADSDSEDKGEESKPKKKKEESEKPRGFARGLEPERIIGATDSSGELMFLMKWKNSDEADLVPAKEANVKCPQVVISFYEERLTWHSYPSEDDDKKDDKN

In the case of `CN1CCc2c(cc(O)c(O)c2Cl)C(c2cccc(Cl)c2)C1` (centres undefined), the ratio change, both ways [1] is reported as inconclusive: -20.2%, the Potency [2] is reported as active: 10 µM and the Potency [3] is reported as active: 11.2 µM. For the same compound, the Potency [4] was inconclusive: 15.8 µM [inhibitor, partial curve], the Potency [5] was “inactive” and the Potency [6] was active: 18.5 µM. For the same compound, the Potency [7] was inconclusive: 18.5 µM [inhibitor, single point].
For `Cc1ccc2nc3sc(C(=O)NCc4ccco4)cc3cc2c1`, the Potency [8] was inconclusive: 15.8 µM [inhibitor, full curve] and inactive and the Potency [9] was inconclusive: 7.08 µM [inhibitor, full curve, poor fit].
For `CNC(=O)[C@H]1O[C@@H](n2cnc3c(NCc4ccc(I)cc4)nc(Cl)nc32)[C@H](O)[C@@H]1O`, the Potency [1] was inconclusive: 12.6 µM [cytotoxic, partial curve], the activity change, negative = inhibition [10] was inconclusive: -21.5% and the Potency [2] was inconclusive: 12.6 µM [inhibitor, partial curve]. The Potency [5] was inconclusive: 25.1 µM [inhibitor, partial curve], the Potency [11] was inconclusive: 2.39 µM [falling, single point] and the Potency [6] was inconclusive: 18.5 µM [inhibitor, single point]. The Potency [7] was inconclusive: 11.7 µM [inhibitor, single point], the Potency [12] was inconclusive: 89.1 µM [inhibitor, single point] and the Potency [13] was inconclusive: 28.2 µM [activator, single point]. For the same compound, the Potency [14] was inconclusive: 13 µM [falling, partial curve], the Potency [15] was inconclusive: 29.1 µM [activator, partial curve, poor fit] and the Potency [16] was inconclusive: 19 µM [falling, single point]. For the same compound, the Potency [17] was inconclusive: 39.8 µM [inhibitor, single point], the Potency [18] was inconclusive: 6.31 µM [inhibitor, single point] and the Potency [19] was inconclusive: 282 nM [inhibitor, full curve, poor fit].
